Like-named read-outs stand apart in the source and are kept apart here. The list shows a part of the results.
Tested on: T1, C. trachomatis L2/434/Bu expressing GFP (CTL2-GFP)
T1 construct: L2/434/Bu GFP intracellular growth in HeLa cells
Set-up: species or system HeLa; C. trachomatis total inclusion area by high-content imaging, normalised to DMSO
Outline: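 Imaging read-out: GFP inclusions and Hoechst nuclei captured by high-content imaging after fixation. Inclusion area/number = chlamydial growth; nuclei count = host cell viability. MIC calculated per earlier method.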

[1] = total inclusion area; 28.5 h, 10 µM; inhibitor

Compound | % of control remaining [1] | % of control remaining (total inclusion area, 28.5 h, 10 µM, inhibitor)
O=C(c1ccno1)N1CCc2ccccc21 [CBK200409] | 104.64 | –
Nc1ncc(-c2ccoc2)nc1-c1ccc(C(=O)N2CCOCC2)cc1 [CBK064076] | 102.871 | –
CC(C)C(NS(=O)(=O)c1ccc(I)cc1)C(=O)O (stereo not drawn) [CBK268703] | 100.55 | –
COc1ccc2[nH]c3c(c2c1)CCN(C(C)=O)C31CCNCC1 [CBK284429] | 59.9502 | –
O=C(O)c1ccc2c(c1)C(=O)N(c1ccc3c(c1)Cc1cc(N4C(=O)c5ccc(C(=O)O)cc5C4=O)ccc1-3)C2=O [CBK261333] | 100.301 | –
COc1ccc([C@@]23CC[C@@H](NC(=O)Nc4cccc(-c5cnco5)c4)C[C@@H]2N(C)CC3)cc1OC [CBK059338T] | 82.3003 | –
N#C/C(=C\c1cn(CCC(N)=O)c2ccccc12)c1nc2ccccc2[nH]1 [CBK267966] | 40.4537 | –
CS(=O)(=O)N1CC2(CCN(Cc3cc(=O)[nH]c(=O)[nH]3)CC2)c2ccccc21 [CBK126679] | 110.156 | –
O=C(NC1CCCC1)c1cccnc1 [CBK200236] | 99.0694 | –
CC(C)(C)c1ccc(C(=O)N2CC[C@H]3NC(=O)N(Cc4ccccc4)C(=O)[C@H]32)cc1 [CBK289294] | 119.523 | –
CC(C)OC(=O)Cc1nc(CN2CCc3sccc3C2C)cs1 (stereo not drawn) [CBK305284] | 40.5262 | –
OCCN1CCN(C(=S)NC2CCCC2)CC1 [CBK265886] | 100.098 | –
COc1ccc(CN2CCN(c3ccccn3)CC2)cc1O [CBK261570] | 94.2103 | –
CC(C)n1cnnc1CN(C)C(=O)CCc1nc2ccccc2s1 [CBK304638] | 51.4185 | –
NC(=O)c1cccc(-c2cnc(N)c(NCc3ccco3)n2)c1 [CBK063660] | 95.8735 | –
N#C/C(=C\Nc1ccc(S(N)(=O)=O)cc1)c1nc(-c2cc3c(ccc4ccccc43)oc2=O)cs1 [CBK262376] | 94.8591 | –
COc1cc(CNC(=O)c2ccc3[nH]ccc3c2)cc(OC)c1OC [CBK149073] | 82.5812 | –
CC(Oc1ccc(F)cc1)C(=O)N1CCCc2c(cnn2C)C1 (stereo not drawn) [CBK285230] | 91.3887 | –
COC(=O)Cn1nnc(-c2ccc(C)cc2)n1 [CBK068195] | – | 93.3691
CC1CCN(S(=O)(=O)c2cccs2)CC1 [CBK102093] | 113.667 | –
COc1cccc(C(=O)Nc2nc3ccc(F)cc3s2)c1 [CBK287342] | 95.7793 | –
COc1ccc(CN2CCCN(c3ccnc(OCCN4CCOCC4)n3)CC2)cc1 [CBK083800] | 56.6146 | –
COc1ccc([C@@]23CCC(NC(=O)Nc4cc(C(F)(F)F)ccc4F)C[C@@H]2N(C)CC3)cc1OC (stereo partly drawn) [CBK047552T] | 90.7954 | –
COc1ccc(OCC(=O)Nc2ccc(C(=O)O)c(Cl)c2)cc1 [CBK287108] | 93.4759 | –
CC(CNS(=O)(=O)c1cc(Cl)ccc1Cl)CN(C)C (stereo not drawn) [CBK266808] | 87.535 | –
CC(C)n1c(SCC(=O)Nc2nc(C(C)(C)C)cs2)nc2c1c(=O)n(C)c(=O)n2C [CBK127417] | 79.5235 | –

Compound | % of control remaining [1] | % of control remaining (total inclusion area, 28.5 h, 10 µM, inhibitor)
COc1ccc(-c2cc(C(F)(F)F)nc(S(=O)(=O)CCC(=O)Nc3ccc(C)cc3)n2)cc1 [CBK266235] | 123.773 | –
CCN(CC)S(=O)(=O)c1ccc(OC)c(NC(=O)C2c3ccccc3Oc3ccccc32)c1 [CBK264774] | 114.261 | –
CSCCOc1cc(N2CCCC2)ncn1 [CBK115900] | 93.3134 | –
O=C(CSc1ncnc2c1oc1ccccc12)Nc1ccccc1 [CBK057994] | 106.575 | –
CSc1nc(NC(=O)c2ccccc2)cc(N2CCNCC2)n1 [CBK050266T] | 94.8862 | –
CCC1(CC)OC(NC(C)c2ccccc2F)=NC1=O (stereo not drawn) [CBK132018] | 56.981 | –
Cn1nc(-c2ccc(S(=O)(=O)Nc3nnn[nH]3)s2)cc1C(F)(F)F [CBK062390] | 114.465 | –
COc1ccc2c(CC(=O)Nc3sccc3C(N)=O)coc2c1 [CBK295137] | 113.002 | –
CCOC(=O)Cc1nnc(-c2cccc(C(F)(F)F)c2)[nH]1 [CBK304385] | 56.8192 | –
CCCn1nc(C)c(-c2cncn2CC(C)n2nc(C)cc2C)c1C (stereo not drawn) [CBK281793] | 100.444 | –
Cc1n[nH]c(C)c1CCC(=O)N/N=C/c1ccc(Cl)cc1Cl [CBK262901] | 102.712 | –
COc1cccc(NC(=O)C2C(C(=O)O)C3C=CC2C32CC2)c1 (stereo not drawn) [CBK287106] | 107.017 | –
COc1ccc(NS(=O)(=O)c2c(Cl)cccc2Cl)c(C(=O)NCc2ccccc2)c1 [CBK113952] | 88.1172 | –
COCCNC(=O)c1cc(-c2ccccc2C)nc2c1cnn2C(C)C [CBK305392] | 30.7352 | –
Cc1ccc(CN(Cc2ccco2)CC(O)COCc2ccco2)s1 (stereo not drawn) [CBK304610] | 53.8074 | –
CN(Cc1cccc(C(F)(F)F)c1)C(=O)c1cn(CC2CCCO2)nn1 (stereo not drawn) [CBK304360] | 41.8497 | –
Cc1cc(OC(C)C(=O)Nc2ccc(S(=O)(=O)Nc3onc(C)c3C)cc2)cc(C)c1Cl (stereo not drawn) [CBK267887] | 98.2073 | –
Cc1noc(C)c1S(N)(=O)=O [CBK022939] | 47.5137 | –
CN(C)Cc1c(O)ccc2occ(C(=O)c3ccccc3)c12 [CBK261965] | 101.635 | –
O=c1[nH]c(=O)c2cc(S(=O)(=O)N3CCC(c4ccccc4)C3)ccc2[nH]1 (stereo not drawn) [CBK286382] | 80.8195 | –
CCOc1ccccc1-c1noc(CSc2nnc(-c3ccncc3)n2-c2cccc(C)c2)n1 [CBK269076] | 86.2312 | –
COc1ccccc1C(=O)Nc1ccc2nc(SCC(=O)NC3CC3)sc2c1 [CBK070791] | 98.9411 | –
CCc1ccc2c(c1)C(CCNC(=O)c1ncccc1F)C(=O)N2 (stereo not drawn) [CBK304727] | 71.2074 | –
CC(=O)Nc1ccc(-c2cncc(NCCCO)n2)cc1 [CBK065598] | 84.7549 | –
COc1cc(C(=O)N2CCC3(CC2)CC(=O)c2cc(C)ccc2O3)cc(-c2ccc(OC)c(OC)c2)c1 [CBK168271] | 126.491 | –
